This sample is rich in variants without activity.
B1: TPR 5TU (parent)
chain: GGAUCUUCUCGAUCUAACAAAAAAGACAAAUCUGCCACAAAGCUUGAGAGCAUCUUCGGAUGCAGAGGCGGCAGCCUUCGGUGGCGCGAUAGCGCCAACGUUCUCAACUAUGACACGCAAAACGCGUGCUCCGUUGAAUGGAGUUUAUCAUG

Variants of: B1
Assay: polymerase ribozyme fitness, log enrichment relative to wild type (log ratio); higher = more active; in vitro selection for triplet polymerase activity
Method in brief: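 Only genotypes with ≥10 input reads and ≥1 read per output were kept after Illumina sequencing of input and output libraries. These libraries were PCR-built, transcribed mutants of each subunit of a heterodimeric triplet polymerase ribozyme, each put through one triplicate in vitro selection round with frozen incubation at −7 °C, gel excision of extended constructs, streptavidin-bead capture and RT-PCR. Fitness is a logarithmic ratio of genotype enrichment to wild-type enrichment, from inverse-variance-weighted replicate averages, with the logarithm in base 2.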

Variant | polymerase ribozyme fitness (log ratio)
GGAUCUUCUCGAUCUAACAAAAAAGACAAAUCUGCCACAAAGCUUGAGAGCCUCUUCGGAUGCAGAGGCGGCAGCCUUCGAUGGUGCGAUAGCGCCAAGGUUCUCAACUAUGACACGCAAAACGCGUGCUCCGUUGAAUGGAGUUUAUCAUG | ≤ -4.2
GGAUCUUCUCGAUCUAACAAAAAAGACAAAUCUGCCACAAAGCUUGAGAGCCUCUUCGGAUGCAGAGCCGGCAGCCUUCGGUGGCGCGAUAGCGCCAACGUUCUCAACUAUGACACGCAAAACGCGUGCUCCGUUGAAUGGAGUUUAUCAUG | ≤ -4.2
GGAUCUUCUCGAUCUAACAAAAAAGACAAAUCUGCCACAAAGCUUGAGAGCCUCUUCGGAUGCAGAGGCGGCAGGCUUCGGUGGCGCCAUAGCGCCAACGUUCUCAACUAUGACACGCAAAACGCGUGCUCCGUUGAAUGGAGUUUAUCAUG | ≤ -4.2
GGAUCUUCUCGAUCUAACAAAAAAGACAAAUCUGCCACAAAGCUUGAGAGCCUCUUCCGAUGCAGAGGCGGCAGCCUUCGGUGGAGCGAUAGCGCCAACGUUCUCAACUAUGACACGCAAAACGCGUGCUCCGUUGAAUGGAGUUUAUCAUG | -3.96
GGAUCUUCUCGAUCUAACAAAAAAGACAAAUCUGCCACAAAGCUUGAGAGCCUCUUCGGAUGCAGAGGCGGCAGCCUUCGGUGGUGCGAUAGCGCCAACGUUCUCAACUAUGACACGCAAAACGCGUGCUCCGUUGAAUGGAGUUUAUCAUG | -1.81
GGAUCUUCUCGAUCUAACAAAAAAGACAAAUCUGCCACAAAGCUUGAGAGCCUCUUCGGAUGUUGAGGCGGCAGCCUUCGGUGGCGCGAUAGCGCCAACGUUCUCAUCUAUGACACGCAAAACGCGUGCUCCGUUGAAUGGAGUUUAUCAUG | ≤ -4.2
GGAUCUUCUCGAUCUAACAAAAAAGACAAAUCUGCCACAAAGCUUGAGAGCCUCUUCGGAUGCAGAGGCGGCAGCCUUCGGUUGAGCGAUAGCGUCAACGUUCUAAACUAUGACACGCAAAACGCGUGCUCCGUUGAAUGGAGUUUAUCAUG | ≤ -4.2
GGAUCUUCUCGAUCUAACAAAAAAGACAAAUCUGCCACAAAGCUUGAGAGCCUCUUCGGAUGCAGAGGCGGCAGCCUUCGGUGGCGCGAUAGUGCCAACGUUGUCAACUAUGACACGCAAAACGCGUGCUCCGUUGAAUGGAGUUUAUCAUG | ≤ -4.2
GGAUCUUCUCGAUCUAACAAAAAAGACAAAUCUGCCACAAAGCUUGAGAGCCUCUUCGGAUGCAGAGGCGGCAGCCUUCGAUCGCGCGAUAGCGCUAACGUACUCAACUAUGACACGCAAAACGGGUGCUCCGUUGAAUGGAGUUUAUCAUG | ≤ -4.2
GGAUCUUCUCGAUCUAACAAAAAAGACAAAUCUGCCACAAAGCUUGAGAGCCUCUUCGGAUGCAGAAGCGGCAUCCUUCGGUGGCUCGAUAGUGCCAACGUUCUCAACUAUGACGCGCAAAACGCGUGCUCCGUUGAAUGGAGUUUAUCAUG | ≤ -4.2
GGAUCUUCUCGAUCUAACAAAAAAGACAAAUCUGCCACAAAGCUUGAGAGCCUCUUCGGAUGCAGAGCCGGCAGCCUUCGGUGGCGCGAUAGCGCCAAUGUUCUCAACUAUGACGCGCAAAACGCGUGCUCCGUUGAAUGGAGUUUAUCAUG | ≤ -4.2
GGAUCUUCUCGAUCUAACAAAAAAGACAAAUCUGCCACAAAGCUUGAGAGCCUCUUCCGAUGCAGAGGCGGCAGCCUUCGGUGGCGCUAUAGCGCCAACGUUCUCAACUAUGACACGCAAAACGCGUGCUCCGUUGAAUGGAGUUUAUCAUG | ≤ -4.2
GGAUCUUCUCGAUCUAACAAAAAAGACAAAUCUGCCACAAAGCUUGAGAGCCUCUUCAGAUGCAGAGACGGCAGCCUUCGGUGGCGCGAUAGCGCCAACGUUCUCAACUAUGACACGCAAAACGCGUGCUCCGUUGAAUGGAGUUUAUCAUG | ≤ -4.2
GGAUCUUCUCGAUCUAACAAAAAAGACAAAUCUGCCACAAAGCUUGAGAGCCUCUUCGGAUGCAGAGGCGGCAGCCUUCGGUGGGGCGAUAUCGCCAACGUUCUCAACUAUGACACGCAAAACGCGUGCUCCGUUGAAUGGAGUUUAUCAUG | ≤ -4.2
GGAUCUUCUCGAUCUAACAAAAAAGACAAAUCUGCCACAAAGCUUGAGAGCCUCUUCGGAUGCAGAGGCGGCAGCCUUCGGUGGUGCGAUAGCGCCAACGUUCUCAACUAUGACACGCAAAACGCGUGCUCCGUUAAAUGGGCUUUAUCAUG | ≤ -4.2
GGAUCUUCUCGAUCUAACAAAAAAGACAAAUCUGCCACAAAGCUUGAGAGCCUCUUCGGAUGCAGAGACGGCAGCCUUCGGUGGCGCGAUAGCGCCCAUGUUCUCAACUAUGACACGCAAAACGCGUGCUCCGUUGAAUGGAGUUUAUCAUG | ≤ -4.2
GGAUCUUCUCGAUCUAACAAAAAAGACAAAUCUGCCACAAAGCUUGAGAGCCUCUUCUAAUGCAGAGGCGGCAGCCUUCGGUGGAGCGAUAGCGCCAACGUUCUCAACUAUGACACGCAAAACGCGUGCUCCGUUGAAUGGAGUUUAUCAUG | -2.15
GGAUCUUCUCGAUCUAACAAAAAAGACAAAUCUGCCACAAAGCUUGAGAGCCUCUUCGGAUGCAGAGGCGGCAGCCUUCGGUGGCGCGAUAGCGCGAAAGUUCUCAACUAAGACACGCAAAACGCGUGCUCCGUUGAAUGGAGUUUAUCAUG | ≤ -4.2
GGAUCUUCUCGAUCUAACAAAAAAGACAAAUCUGCCACAAAGCUUGAGAGCCUCUUCGGAUGCAGAGGCGGCAGCCUUCCGUGGCGCGAUAGGGCCAACGUUCUCAACUAUGACACGCAAAACGCGUGCUCCGUUGAAUGGAGUUUAUCAUG | ≤ -4.2

Variant | polymerase ribozyme fitness (log ratio)
GGAUCUUCUCGAUCUAACAAAAAAGACAAAUCUGCCACAAAGCUUGAGAGCCUCUUCGGAUGCAGAGGCGGCAGCCUUCCGUUGCGCGAUAGCGCCAACGUUCUCAACUAUGACACGCAAAACGCGUGCUCCGUUGAAUGGAGUUUAUCAUG | ≤ -4.2
GGAUCUUCUCGAUCUAACAAAAAAGACAAAUCUGCCACAAAGCUUGAGAGCCUCUUCGGAUGCAGAGGCGGCAGGCUUCGGUGGUGCGAUAGCGUCAACGUUCUCAACUAUGACACGCAAGUCGCGUGCUCCGUUGAAUGGAGUUUAUCAGG | ≤ -4.2
GGAUCUUCUCGAUCUAACAAAAAAGACAAAUCUGCCACAAAGCUUGAGAGCCUCUUCGGAUGCAGAGGCGGCAGCCUUCGGUGGCGUGAUAGCGCCAACGUUCUCAACUAUGACACGCAAAACGCGUGCUCCGUUGAAUGGAGUUUAUCAUG | -0.789
GGAUCUUCUCGAUCUAACAAAAAAGACAAAUCUGCCACAAAGCUUGAGAGCCUCUUCCGAUGCAGAGGCGGCAGCCUUCGGGGGCGCGAUAGAGGCAACGUUCUCAUCUAUGACACGCAAAACGCGUGCGCCGUUGAAGGGAGUUUAUCAUG | ≤ -4.2
GGAUCUUCUCGAUCUAACAAAAAAGACAAAUCUGCCACAAAGCUUGAGAGCCUCUUCGGAUGCAGAGGCGGCAGCCUUCGGUGGCGCGAUAGCGCAAACGUUCUCAACUAUGACACGGAAAACGAGUGCUCCGUUGAAUGGAGUUUAUCAUG | -2.23
GGAUCUUCUCGAUCUAACAAAAAAGACAAAUCUGCCACAAAGCUUGAGAGCCUCUUCGGAUGCAGAGGAGGCAGCCUUCGGUGGCGCGAUAGCGCAAACGUUCUCAACUAUGACACGCAAAACGCGUGCUCCGUUGAAUGGAGUUUAUCAUG | -3.18
GGAUCUUCUCGAUCUAACAAAAAAGACAAAUCUGCCACAAAGCUUGAGAGCCUCUUCGGAUGCAGAGGCGGCAGCCUUCGGUGGCGCGAUAGCGUUAACGUUCUCAACUAUGAUACGCAAAACGCGUGCUCCUUUGAAUGGAGUUUAUCAUG | ≤ -4.2
GGAUCUUCUCGAUCUAACAAAAAAGACAAAUCUGCCACAAAGCUUGAGAGCCUCUUCGGAUGCAGAGGGGGCAGCCUUCGGUGUCGCGAUAGCGCCAACGUUCUCAACUAUGACCCGCAAAACGCGUGCUCCGUUGAAUGGAGUUUAUCAUG | ≤ -4.2
GGAUCUUCUCGAUCUAACAAAAAAGACAAAUCUGCCACAAAGCUUGAGAGCCUCUUCGGAUGCAGAGGCGGCAGCCUUCGGUGCGGCAAUAGCGCCAACGUUCUCAACUAUGACACGCAAAACGCGUGCUCCGUUGAAUGGAGUUUAUCAUG | ≤ -4.2
GGAUCUUCUCGAUCUAACAAAAAAGACAAAUCUGCCACAAAGCUUGAGAGCCUCUUCGGAUGCAGAGGCGGCAGCCUUCGGUGGCGCGAUAGCGUCAAUGUUCUCAACUAUGACACGCAAAACGCGUGCUCCGUUGAAUGGAGUUUAUCAUG | -3.18
GGAUCUUCUCGAUCUAACAAAAAAGACAAAUCUGCCACAAAGCUUGAGAGCCUCUUCAGAUGCAGAGGCGGCAGCCUUCGGUGGCGCGAUAGUGCCAACGUUCUCAACUAUGACCCGCAAAACGCGUGCUCCGUUGAAGGUAUUUUAGCAUG | ≤ -4.2
GGAUCUUCUCGAUCUAACAAAAAAGACAAAUCUGCCACAAAGCUUGAGAGCCUCUUCGGAUGCAGAGGCGGCAGCCUUCGGUGGCGCGAUAGCGCGAACGUUCUCAACUAUGACACGCAAAACGCGUGCUCCGUUGAAUGGAGUUUAUCAUG | -1.36
GGAUCUUCUCGAUCUAACAAAAAAGACAAAUCUGCCACAAAGCUUGAGAGCCUCUUCGGAUGCAGAGGCGGCAGCCUUGGGUGCCGCGAUAGCUCCAACUUUCUCAACUAUGACACGCAAAACGCGUGCUCCGUUGAAUGGAGUUUAUCAUG | ≤ -4.2
GGAUCUUCUCGAUCUAACAAAAAAGACAAAUCUGCCACAAAGCUUGAGAGCCUCUUCCGAUGCAGAGGCGGCAGCCUUCGGUGGCGCGAUAGCGCCAACGUUCUCAACUAUGACAAGCAAAAGGUGUGCUCCGUUGAAUGGAGUUUAUCAUG | ≤ -4.2
GGAUCUUCUCGAUCUAACAAAAAAGACAAAUCUGCCACAAAGCUUGAGAGCCUCUUCGGAUGCAGAGGCGGCAGCCUUCGGUGACUCGAUAGCGUCAACGUUCUCAACUAUGAGACGCAAAACGCGUGCUCCGUUGAAUGGAGUUUAUCAUG | ≤ -4.2
GGAUCUUCUCGAUCUAACAAAAAAGACAAAUCUGCCACAAAGCUUGAGAGCCUCUUCGGAUGCAGAGGCGGAAGCCUUCGGUGGUGCGAUAGCGCCAACGUUCUCAGCUAUGACACGCAAAACGCGUGCUCCGUUGAAUGGAGUUUAUCAUG | ≤ -4.2
GGAUCUUCUCGAUCUAACAAAAAAGACAAAUCUGCCACAAAGCUUGAGAGCCUCUUCUGAUGCAGAGGCGGCAGCCUUCGGUGGCGCGAUAAAGCCAACGUUCUCAACUAUGACACGCAAAACGCGUGCUCCGUUGAAUGGAGUUUAUCGUG | ≤ -4.2
GGAUCUUCUCGAUCUAACAAAAAAGACAAAUCUGCCACAAAGCUUGAGAGCCUCUUCGGAUGCAGAGGCGGCAGCCUUCGGUCGUGCGAUAGCGCCAACGUUCUCAACUAUGACACGCAAGACGCGUGCUCCGUUGACUGGAGUUUAUCAUG | ≤ -4.2
GGAUCUUCUCGAUCUAACAAAAAAGACAAAUCUGCCACAAAGCUUGAGAGCCUCUUCGGAUGCAGAGGCGGCACCCUUCGGUGGCGCGAUAGCGCCAACGUUCUCAAUUAUGGCACGCAAAACGCGUGCUCCGUUGAAUGGAGUGUAUCAUG | ≤ -4.2
